Test results from patent publication US20190381183A1 (TEXAS A AND M UNIVERSITY SYSTEM, published 2019).

Target: T1, trastuzumab Fab-CalD2 (HER2-specific Fab fragment derived from trastuzumab, fused at the C-terminus of the …)
T1 construct: also called trastuzumab VH-CH1-hinge-CalD2 with trastuzumab light chain
Experiment: SPR, 100 nM CalD1-Fc injected over trastuzumab Fab-CalD2 held on immobilized HER2-ECD-Fc in 2 mM CaCl2, then buffer with 2 mM to 0 mM CaCl2 (1 mM EDTA)

B1: CalD1-Fc (human IgG1-derived Fc fragment fused with domain 1 of calbindin D9K) (Fc fusion)
chain: KSPEELKRIFEKYAAKEGDPDQLSKDELKLLIQAEFPSLLKGPGSSV[human IgG1 Fc with changes left out here]
notes: also called CalD1-hinge-Fc; CalD1-Fc fusion
- binding result: binds
